Where “and” joins values, the source holds several entries; their conditions need not be identical. Equal values may be shown once. ± gives the standard deviation of the averaged measurements. Over roughly 1,900 compounds, “CD40L-induced NF-kB luciferase activity, plate-corrected, relative to DMSO (0) and IKK inhibitor VII (-100) controls” has its median near 0.032; the lowest 2% begin near -26. Some of the results follow.
test system: BL2-NFkB-Luc; assay: CD40L-induced NF-kB luciferase activity, plate-corrected, relative to DMSO (0) and IKK inhibitor VII (-100) controls (% normalized activity); higher = more NF-kB reporter activity (less inhibition); details: 9.4 µM; stimulus: tCD40L 64 ng/ml; 4.5 h
Description: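 BL2 B cells with a stable NF-kB response-element luciferase reporter (BL2-NFkB-Luc), 384-well. Cells were pre-incubated with compound at 9.4 uM for 1 h at 37 C, then stimulated with 64 ng/ml trimerized CD40L for 4.5 h; luciferase was read with Steady-Glo. Signal was normalised per plate in Genedata (median DMSO neutral control = 0, median IKK inhibitor VII at 50 uM = -100) with Assay Median plate-pattern correction; duplicate plates.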

Structure (SMILES) | CD40L-induced NF-kB luciferase activity
COc1ccc(C(=O)Nc2cccc3cccnc23)cc1OC | 19.3 ± 10
CN(C)CCCN1c2ccccc2Sc2ccc(Cl)cc21 | 4.73 and 4.04
CC1(C)CC(CNCCC(c2ccc(F)cc2)c2ccco2)CCO1 (stereo not drawn) | -3.87 ± 7.5
O=c1ccc2ccccc2o1 | 5.33 ± 1.6
O=C(O)C[C@@H](O)C(=O)O | 0.236 ± 3.4
CCc1nc2ccccc2n1Cc1ccc(OC)c(OC)c1 | -4.69 ± 1.2
O=c1[nH]cnc2c1ncn2[C@@H]1O[C@H](CO)[C@@H](O)[C@H]1O | 0.768 ± 3.4
O=C(CN1C(=O)c2ccccc2C1=O)Nc1cccc([N+](=O)[O-])c1 | 3.26 ± 5
O=C1C(=O)N2C(=C1C(=O)N1CCCCCC1)c1ccccc1CC21CCCC1 | -8.65 ± 3.7
C[C@@H]1C[C@H]2[C@@H]3C[C@H](F)C4=CC(=O)C=C[C@]4(C)[C@@]3(F)[C@@H](O)C[C@]2(C)[C@@]1(O)C(=O)COC(=O)C(C)(C)C | -29.5 ± 1.7
COc1ccc(CC(=O)c2c(O)cc(O)cc2O)cc1OC | 8.04 ± 8.6
CC(C)CCC1(CCNC(C)c2cccs2)CCOC(C)(C)C1 (stereo not drawn) | -2.91 ± 3.8
C=CCNC(=O)c1ccc(-c2cccc([N+](=O)[O-])c2)o1 | 42.3 ± 3.3
COc1cc2c(cc1OC)-c1cc(NC3CCCCCC3)nc(=O)n1CC2 | -2.67 ± 1.2
Nc1ccn([C@@H]2O[C@H](CO)[C@@H](O)[C@@H]2O)c(=O)n1 | -30.5 ± 2.4
COc1ccc(NC(=O)CC2C(=O)N(C)C(=S)N2Cc2ccncc2)cc1 (stereo not drawn) | 3.18 ± 0.39
CCOc1ccc(C(=O)/C=C/c2cc(OC)c(OC)c(OC)c2)cc1 | -5.34 ± 4.4
c1ccc(Cn2nnc3cnccc32)cc1 | 3.11 ± 1.1
O=C(CCN1CCC(c2ccccc2)C1)c1ccc2c(c1)OCCO2 (stereo not drawn) | -5.04 ± 8
CCOc1cc2c(cc1OCC)C(c1ccccc1)N(c1ccc(C(=O)O)cc1)C(=O)C2 (stereo not drawn) | 0.452 ± 1.9

Structure (SMILES) | CD40L-induced NF-kB luciferase activity
CC(C)(C)c1ccc(C(O)CCCN2CCC(C(O)(c3ccccc3)c3ccccc3)CC2)cc1 (stereo not drawn) | 0.124 ± 2
CC(=O)Nc1nc(CCC(C)C)cc2c1c(=O)oc1ccccc12 | 0.806 ± 0.17
CC(COc1ccccc1)NC(C)C(O)c1ccc(O)cc1 (stereo not drawn) | -2.97 ± 7.5
CCc1ccc(CN(C)Cc2nc(Cc3ccccc3)no2)nc1 | -1.15 ± 0.5
CN(C)CCOCCOc1ccc(Cl)cc1Br | -4.58 ± 7
O=c1c2ccccc2nc2n1-c1ccccc1CCC2 | -5.01 ± 3.7
Cn1c2c(c(=O)[nH]c1=O)C(c1ccc(O)cc1)C1=C(N2)c2ccccc2C1=O (stereo not drawn) | -7.73 ± 3.6
O=C(O)CCCCCN1C(=O)C(=O)/C(=C(/O)c2ccccc2)C1c1ccccc1 (stereo not drawn) | -0.297 ± 0.14
O=C(Oc1cccccc1=O)c1ccccc1 | 4.85 ± 4.8
Cc1nonc1CN(C)C(=O)c1ccc(OC2CCN(Cc3ccccn3)CC2)cc1 | -2.36 ± 0.37
C=CCNC(=S)N1CCc2c([nH]c3ccccc23)C1C (stereo not drawn) | -1.53 ± 0.54
OC[C@H]1O[C@@H](n2cnc3c(Nc4ccccc4)ncnc32)[C@H](O)[C@@H]1O | 4.14 ± 2
COc1cc2c(cc1OC)CN(C(=O)c1ccc(S(=O)(=O)N(C)c3ccccc3)cc1)CC2 | -1.04 ± 2.9
CCOc1ccccc1C(=O)NCCC(=O)O | -1.43 ± 3.9
Cc1cc(-c2ccccc2)nnc1NCCN1CCOCC1 | 0.543 ± 2.8
OCCN(Cc1nc(-c2ccc3c(c2)OCO3)no1)Cc1cccs1 | 10.4 ± 0.49
Cc1cc(-c2nn(-c3ccccc3F)cc2CN2CCCC(O)C2)c(C)s1 (stereo not drawn) | -8.13 ± 0.3
CSc1ccc2c(c1)N(CCC1CCCCN1C)c1ccccc1S2 (stereo not drawn) | 2.81 ± 5.8
c1ccc(Cn2ncc3c(Nc4ccccc4)ncnc32)cc1 | -4.36 ± 5.5
CCCC(CCC)C(=O)OC1C[C@H]2CC[C@@H](C1)[N+]2(C)C (stereo partly drawn) | 2.53 ± 2.9

Structure (SMILES) | CD40L-induced NF-kB luciferase activity
CCC[C@@H]1C[C@@H](C(=O)N[C@@H]([C@H]2O[C@H](SC)[C@H](O)[C@@H](O)[C@@H]2O)[C@@H](C)O)N(C)C1 | 3.48 ± 1.2
O=c1nc2sc3ccccc3n2c(=O)n1-c1ccc(Cl)cc1 | 43.9 ± 6.1
O=C(OCCN1CCOCC1)c1cccs1 | -4.77 ± 5.6
Cc1ccc(S(=O)(=O)NC(=O)NN2CCCCCC2)cc1 | 4.36 ± 1
COc1ccc(CCn2c(C)nc3c(c(=O)c4ccccc4n3C)c2=O)cc1 | -5.83 ± 7.7
COC1(C)CC2C(CC1OC(=O)c1cc([N+](=O)[O-])cc([N+](=O)[O-])c1)C2(C)C (stereo not drawn) | -2.15 ± 1.7
C[C@]12CC[C@@H]3c4ccc(OS(=O)(=O)O)cc4CC[C@H]3[C@@H]1CCC2=O | -3.9 ± 0.34
COc1ccccc1NC(=O)C12CCC(C)(C(=O)C1)C2(C)C (stereo not drawn) | -2.22 ± 0.13
OC(CCCN1CCCCC1)(c1ccccc1)c1ccccc1 | 2.58 ± 4.7
CCN(CC)CCOC(=O)C(c1ccccc1)c1ccccc1 | 0.144 ± 0.79
Cc1ccc(O)c(CCc2ccccc2)n1 | 21.1 ± 3.1
CCN(CC)CCNc1ccc(CO)c2sc3ccccc3c(=O)c12 | 61.35 ± 0.042
Cn1nc(-c2ccccn2)nc2c(=O)n(C)c(=O)nc1-2 | -19.1 ± 0.82
CCCCC[C@H](O)/C=C/[C@@H]1[C@@H](C/C=C\CCCC(=O)OC)[C@@H](O)C[C@H]1O | -2.47 ± 3.2
Fc1cc(F)cc(NC(=S)NCCCN2CCOCC2)c1 | 2.2 ± 2.8
Cc1ccsc1/C=C/C1=NCCCN1C | -3.66 ± 2.7
COc1ccc(C=O)c(OC)c1 | 3.69 ± 3
COc1ccc(/C=C2\CCn3c2nc2cc(C(=O)O)ccc2c3=O)cc1OC | -3.92 ± 7.8
